Data taken from patent publication US20260013501A1, “HERBICIDAL DERIVATIVES” (SYNGENTA CROP PROTECTION AG, priority 2022, published 2026).
The name of at least one read-out is uncertain.

Experiments:
Assay type in all cases: in vivo
[1] = system: Ipomoea hederacea (IPOHE); assay: Pre-emergence Test (Table B1), IPOHE; conditions: evaluated after 13 days
[2] = system: Ipomoea hederacea (IPOHE); assay: Post-emergence Test (Table B2), IPOHE; set-up: key: five-point scale: 5=81-100%, 4=61-80%, 3=41-60%, 2=21-40%, 1=0-20% damage; conditions: evaluated after 13 days
Protocol: (§1) Seeds of a variety of test species are sown in standard soil in pots (Ipomoea hederacea (IPOHE), Zea mays (ZEAMX), Echinochloa crus-galli (ECHCG), Amaranthus palmeri (AMAPA), (Amaranthus retoflexus (AMARE), and (Setaria faberi (SETFA)). After 8 days cultivation under controlled conditions in a glasshouse (at 24° C./16° C., day/night; 14 hours light; 65% humidity), the plants are sprayed with an aqueous spray solution derived from the formulation of the technical active ingredient in acetone/water (50:50) solution containing 0.5% Tween 20 (polyoxyethelyene sorbitan monolaurate, CAS RN 9005-64-5). Rate of application is shown in g/ha in the tables below. The test plants are then grown in a glasshouse under controlled conditions in a glasshouse (at 24° C./16° C., day/night; 14 hours light; 65% humidity) and watered twice daily. After 13 days the test is evaluated for the percentage damage caused to the plant. The biological activities are shown in the following table on a five-point scale (5=81-100%; 4=61-80%; 3=41-60%; 2=21-40%; 1=0-20%; -=not tested).

[3] = system: Zea mays (ZEAMX); assay: Post-emergence Test (Table B2), ZEAMX; set-up: key: 5-point damage scale: 5=81-100%, 4=61-80%, 3=41-60%, 2=21-40%, 1=0-20%; conditions: evaluated after 13 days
Protocol: as §1

[4] = system: Echinochloa crus-galli (ECHCG); assay: Post-emergence Test (Table B2), ECHCG; set-up: key: 5-point damage scale: 5=81-100%, 4=61-80%, 3=41-60%, 2=21-40%, 1=0-20%; conditions: evaluated after 13 days
Protocol: as §1

[5] = system: Amaranthus palmeri (AMAPA); assay: Post-emergence Test (Table B2), AMAPA; set-up: key: five-point scale: 5=81-100%, 4=61-80%, 3=41-60%, 2=21-40%, 1=0-20% damage; conditions: evaluated after 13 days
Protocol: as §1

[6] = system: Amaranthus retoflexus (AMARE); assay: Post-emergence Test (Table B2), AMARE; set-up: key: five-point scale: 5=81-100%, 4=61-80%, 3=41-60%, 2=21-40%, 1=0-20% damage; conditions: evaluated after 13 days
Protocol: as §1

[7] = system: Echinochloa crus-galli (ECHCG); assay: Pre-emergence Test (Table B1), ECHCG; conditions: evaluated after 13 days
[8] = system: Setaria faberi (SETFA); assay: Pre-emergence Test (Table B1), SETFA; conditions: evaluated after 13 days
[9] = system: Setaria faberi (SETFA); assay: Post-emergence Test (Table B2), SETFA; set-up: key: five-point scale: 5=81-100%, 4=61-80%, 3=41-60%, 2=21-40%, 1=0-20% damage; conditions: evaluated after 13 days
Protocol: as §1

[10] = system: Amaranthus retoflexus (AMARE); assay: Pre-emergence Test (Table B1), AMARE; conditions: Rate 250 g/Ha, evaluated after 13 days

SMILES	Pre-emergence Test, percentage damage caused to the plant (five-point scale), IPOHE ([1]; Rate 250 g/Ha)	percentage damage caused to the plant, IPOHE ([2]; rate 250 g/Ha)	percentage damage caused to the plant, ZEAMX ([3]; rate 250 g/Ha)	percentage damage caused to the plant, ECHCG ([4]; rate 250 g/Ha)	percentage damage caused to the plant, AMAPA ([5]; rate 250 g/Ha)	percentage damage caused to the plant, AMARE ([6]; rate 250 g/Ha)	Pre-emergence Test, percentage damage caused to the plant (five-point scale), ECHCG ([7]; Rate 250 g/Ha)	Pre-emergence Test, percentage damage caused to the plant (five-point scale), SETFA ([8]; Rate 250 g/Ha)	percentage damage caused to the plant, SETFA ([9]; rate 250 g/Ha)	Pre-emergence Test, percentage damage caused to the plant (five-point scale), AMARE [10]	Pre-emergence Test, percentage damage caused to the plant (five-point scale), IPOHE ([1]; Rate 1000 g/Ha)	Pre-emergence Test, percentage damage caused to the plant (five-point scale), ECHCG ([7]; Rate 1000 g/Ha)	Pre-emergence Test, percentage damage caused to the plant (five-point scale), SETFA ([8]; Rate 1000 g/Ha)	percentage damage caused to the plant, AMAPA ([5]; rate 1000 g/Ha)	percentage damage caused to the plant, AMARE ([6]; rate 1000 g/Ha)	percentage damage caused to the plant, SETFA ([9]; rate 1000 g/Ha)	percentage damage caused to the plant, ZEAMX ([3]; rate 1000 g/Ha)	percentage damage caused to the plant, ECHCG ([4]; rate 1000 g/Ha)	percentage damage caused to the plant, IPOHE ([2]; rate 1000 g/Ha)
CCn1c(Cc2nccc(OC)n2)cc(=O)c(C(=O)O)c1-c1ccc(Cl)c(Cl)c1 [Compound 20, 2-(3,4-dichlorophenyl)-1-ethyl-6-[(4-methoxypyrimidin-2-yl)methyl]-4-oxo-pyridine-3-carboxylic acid]	1 (1=0-20%)	3 (3=41-60%)	2 (2=21-40%)	4 (4=61-80%)	1 (1=0-20%)	1 (1=0-20%)													
CCn1c(Cc2ncccn2)cc(=O)c(C(=O)O)c1-c1ccc(Cl)c(Cl)c1 [Compound 22, 2-(3,4-dichlorophenyl)-1-ethyl-4-oxo-6-(pyrimidin-2-ylmethyl)pyridine-3-carboxylic acid]	1 (1=0-20%)	3 (3=41-60%)	1 (1=0-20%)	3 (3=41-60%)	1 (1=0-20%)	1 (1=0-20%)													
CCn1c(Cc2ccnc(Cl)c2)cc(=O)c(C(=O)O)c1-c1ccc(Cl)c(Cl)c1 [Compound 41, 6-[(2-chloro-4-pyridyl)methyl]-2-(3,4-dichlorophenyl)-1-ethyl-4-oxo-pyridine-3-carboxylic acid]	2 (2=21-40%)	3 (3=41-60%)		4 (4=61-80%)	2 (2=21-40%)	3 (3=41-60%)	4 (4=61-80%)	4 (4=61-80%)	4 (4=61-80%)										
CCn1c(Cc2cc(=O)[nH]cn2)cc(=O)c(C(=O)O)c1-c1ccc(Cl)c(Cl)c1 [Compound 45, 2-(3,4-dichlorophenyl)-1-ethyl-4-oxo-6-[(6-oxo-1H-pyrimidin-4-yl)methyl]pyridine-3-carboxylic acid]	1 (1=0-20%)	1 (1=0-20%)	1 (1=0-20%)		1 (1=0-20%)	1 (1=0-20%)													
CCn1c(Cc2ccc(OC)c(Cl)c2)cc(=O)c(C(=O)O)c1-c1ccc(Cl)c(Cl)c1 [Compound 86, 6-[(3-chloro-4-methoxy-phenyl)methyl]-2-(3,4-dichlorophenyl)-1-ethyl-4-oxo-pyridine-3-carboxylic acid]		1 (1=0-20%)	1 (1=0-20%)	1 (1=0-20%)			2 (2=21-40%)	2 (2=21-40%)	1 (1=0-20%)	1 (1=0-20%)									
CCn1c(Cc2cc(OC)ccc2F)cc(=O)c(C(=O)O)c1-c1ccc(Cl)c(Cl)c1 [Compound 90, 2-(3,4-dichlorophenyl)-1-ethyl-6-[(2-fluoro-5-methoxy-phenyl)methyl]-4-oxo-pyridine-3-carboxylic acid]											1 (1=0-20%)	2 (2=21-40%)	2 (2=21-40%)	2 (2=21-40%)	2 (2=21-40%)	1 (1=0-20%)			
CCn1c(Cc2ccc(F)c(OC)c2)cc(=O)c(C(=O)O)c1-c1ccc(Cl)c(Cl)c1 [Compound 95, 2-(3,4-dichlorophenyl)-1-ethyl-6-[(4-fluoro-3-methoxy-phenyl)methyl]-4-oxo-pyridine-3-carboxylic acid]											1 (1=0-20%)	1 (1=0-20%)	4 (4=61-80%)	2 (2=21-40%)	2 (2=21-40%)	4 (4=61-80%)	1 (1=0-20%)	2 (2=21-40%)	
CCn1c(Cc2cc(COC)cc(Cl)n2)cc(=O)c(C(=O)O)c1-c1ccc(Cl)c(Cl)c1 [Compound 103, 6-[[6-chloro-4-(methoxymethyl)-2-pyridyl]methyl]-2-(3,4-dichlorophenyl)-1-ethyl-4-oxo-pyridine-3-carboxylic acid]												2 (2=21-40%)	4 (4=61-80%)	4 (4=61-80%)	4 (4=61-80%)	4 (4=61-80%)	1 (1=0-20%)	4 (4=61-80%)	3 (3=41-60%)
CCn1c(Cc2ccc(C)c(C#N)n2)cc(=O)c(C(=O)O)c1-c1ccc(Cl)c(Cl)c1 [Compound 113, 6-[(6-cyano-5-methyl-2-pyridyl)methyl]-2-(3,4-dichlorophenyl)-1-ethyl-4-oxo-pyridine-3-carboxylic acid]	1 (1=0-20%)	3 (3=41-60%)	1 (1=0-20%)	3 (3=41-60%)			3 (3=41-60%)	2 (2=21-40%)	3 (3=41-60%)										
CCn1c(Cc2cc(C)on2)cc(=O)c(C(=O)O)c1-c1ccc(Cl)c(Cl)c1 [Compound 135, 2-(3,4-dichlorophenyl)-1-ethyl-6-[(5-methylisoxazol-3-yl)methyl]-4-oxo-pyridine-3-carboxylic acid]		3 (3=41-60%)	1 (1=0-20%)		2 (2=21-40%)	1 (1=0-20%)		1 (1=0-20%)		2 (2=21-40%)									
CCn1c(Cc2nccnc2Cl)cc(=O)c(C(=O)O)c1-c1ccc(Cl)c(Cl)c1 [Compound 144, 6-[(3-chloropyrazin-2-yl)methyl]-2-(3,4-dichlorophenyl)-1-ethyl-4-oxo-pyridine-3-carboxylic acid]		2 (2=21-40%)	1 (1=0-20%)	1 (1=0-20%)	1 (1=0-20%)	1 (1=0-20%)			2 (2=21-40%)	1 (1=0-20%)									
